# The list shows a part of the results.
# System: T1, Caupolican (Caup) homeodomain DNA-binding domain
# T1 sequence: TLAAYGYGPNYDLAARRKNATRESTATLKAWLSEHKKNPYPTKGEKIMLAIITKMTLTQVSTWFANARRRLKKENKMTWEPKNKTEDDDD
# Test: PBM E-score (8-mer, recovered from the published 9-mer minima) (E-score (dimensionless, -0.5 to 0.5)); Drosophila protein; higher = stronger relative binding preference, active = 0.31 or more
# Summary of the method: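 An enrichment score, with higher meaning stronger, expresses relative binding preference for each short DNA word. The protein used was Caup's homeodomain DNA-binding domain (residues 214-303), produced by in vitro transcription and translation and tested at 100 nM on custom-designed protein binding microarrays. The 8-mer values were recovered from published 9-mer scores, each equal to the lower of its two constituent 8-mer scores.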
row,Sequence,PBM E-score
1,CCCGGCAA,inactive: -0.137
2,AGGTGAGG,inactive: -0.189
3,CCGGCCGG,inactive: -0.301
4,CAATACGC,inactive: -0.00448
5,CTGAACGC,inactive: -0.106
6,AGAAGTCC,inactive: -0.112
7,GGTGACAA,inactive: 0.254
8,TTCCTAAA,inactive: 0.035
9,GCATCACC,inactive: -0.128
10,ATATCCAT,inactive: 0.135
11,AGATCTAT,≥ 0.126
12,AATTGGTC,inactive: 0.117
13,CACGTCAA,inactive: 0.143
14,CTCTTCCC,inactive: -0.0949
15,CAGGAACC,inactive: -0.0573
16,AGCGTGAC,inactive: 0.0217
17,ATACTGGG,inactive: -0.00669
18,AACTAGTC,inactive: 0.197
19,AACGATCG,inactive: 0.0403
20,ACCCAAGT,≥ 0.0182
21,AGGAGGAA,inactive: -0.0242
22,AACCACCT,inactive: -0.0101
23,CGCTGGTA,inactive: 0.0151
24,ACGCCATG,inactive: 0.0924

row,Sequence,PBM E-score
1,AAGCTTGG,inactive: -0.099
2,ACGTCAAA,≥ 0.143
3,CACCCTTA,inactive: -0.0688
4,GTATGATA,inactive: 0.242
5,GCCAGGCA,inactive: -0.208
6,GACGTACC,inactive: -0.0787
7,ACGCTAGG,inactive: -0.174
8,CTTTCGTA,inactive: -0.00453
9,CGGTCCAG,inactive: -0.162
10,AACAACGC,inactive: 0.182
11,ATATATGA,inactive: 0.252
12,AGCCTAAT,inactive: 0.0704
13,AATATTAA,inactive: 0.153
14,CCCTTACC,inactive: -0.0569
15,ACGAACCG,inactive: -0.0561
16,AGTGCTGA,inactive: 0.0135
17,ACGGCGGC,inactive: -0.283
18,ATTAAAGG,inactive: -0.0169
19,AGCTCTTG,inactive: 0.00429
20,ATTTCCAC,inactive: 0.0863
21,CGGGTACC,inactive: -0.0645
22,ATCCGTCC,inactive: -0.0336
23,GAAACTTC,inactive: -0.0761
24,AATAACTC,inactive: 0.0581

row,Sequence,PBM E-score
1,AATAGTTC,inactive: 0.151
2,ACCGGTGC,inactive: -0.201
3,GCATTGCC,inactive: -0.0319
4,CGCGGAAG,inactive: -0.201
5,GGAACGTA,inactive: -0.054
6,GGATCCAA,inactive: 0.00972
7,AAGTATCG,inactive: 0.134
8,CCCAGCCC,inactive: -0.288
9,CCGCTAAA,inactive: -0.0666
10,CATGATGA,inactive: 0.194
11,TACGCGAA,inactive: 0.0654
12,AGCATGTG,inactive: 0.222
13,TTGCACAA,≥ 0.182
14,CGATCATC,inactive: 0.0443
15,AGGCTAGG,inactive: -0.17
16,CCTTAGGA,inactive: -0.109
17,AATCCAGT,inactive: 0.0433
18,CAACAGGC,inactive: -0.0073
19,CGGAGGAA,inactive: -0.0918
20,TGGCAACA,≥ 0.153
21,ATTGTATA,inactive: 0.259
22,AAGGGGGA,inactive: -0.203
23,AGGTCTTG,inactive: -0.0443
24,TAGCTCAA,inactive: -0.087

row,Sequence,PBM E-score
1,TACCGTCA,inactive: -0.117
2,AAAGTTGC,inactive: -0.0584
3,CCTGGCGA,inactive: -0.165
4,ACCGTTTG,inactive: -0.0923
5,AGGGGTCC,inactive: -0.228
6,AGGGCCCC,inactive: -0.248
7,CGCCCAGA,inactive: -0.192
8,TGAGCGCA,inactive: -0.0868
9,GGCTTAAA,inactive: -0.0788
10,GCACTCAC,inactive: -0.0914
11,GCGAGCGC,inactive: -0.236
12,GACTTCAC,inactive: -0.0647
13,ATCCTTCA,inactive: -0.0121
14,CATTGGGC,inactive: -0.166
15,AAAACAAT,inactive: 0.177
16,CGTCCACC,inactive: -0.142
17,GGTAAGGA,inactive: 0.0232
18,ATTGCTTG,inactive: 0.132
19,TGAAGCCA,inactive: -0.0494
20,AAGCTGGT,inactive: -0.0354
21,CCACGTTC,inactive: -0.0535
22,ATAACAGC,inactive: 0.148
23,CTCTCAAA,inactive: -0.0152
24,TAGTTGAA,inactive: 0.0189

row,Sequence,PBM E-score
1,TATAGGCA,inactive: 0.0331
2,AAGTACCA,inactive: 0.195
3,AGACTCCA,inactive: -0.0865
4,AATAATAA,inactive: 0.15
5,TCACGCCA,inactive: -0.0512
6,GTCCAAGA,inactive: -0.0635
7,CACGATAC,inactive: 0.13
8,GCGTTTTA,inactive: -0.0186
9,CAGCCGAG,inactive: -0.176
10,CCATTTCC,inactive: 0.0359
11,AATTAAAT,inactive: 0.0955
12,ACGTAATG,inactive: 0.16
13,AAACAGAT,≥ 0.185
14,AGCTTTGG,inactive: -0.137
15,GTTCGACA,inactive: 0.274
16,CAATATCC,inactive: 0.053
17,AGTGCGGA,inactive: -0.0562
18,AGGGCCAC,inactive: -0.151
19,CCGGCTCC,inactive: -0.317
20,CTGTCTCA,inactive: 0.0247
21,GCGAAGCC,inactive: -0.24
22,CCGAAAAG,inactive: -0.0427
23,AGGGTCCC,inactive: -0.207
24,ATCCCTGA,inactive: -0.0475

row,Sequence,PBM E-score
1,GGAGAACC,inactive: -0.146
2,AGGCGCGG,inactive: -0.21
3,TAAACTTA,inactive: 0.147
4,ATGGGAGA,inactive: -0.0478
5,CTGTTTCA,inactive: 0.0519
6,GTGCCAAC,inactive: -0.0293
7,AGATCCAT,inactive: -0.0856
8,CAGAGCGC,inactive: -0.198
9,AAAATCGT,inactive: 0.0463
10,ACACCCCG,inactive: -0.0107
11,CTGCTTGC,inactive: -0.077
12,CAATTGAG,inactive: 0.00079
13,GCCTAGGA,inactive: -0.129
14,AACTAACG,inactive: 0.00611
15,ACCTGTCT,inactive: 0.144
16,ACTTAGCT,inactive: -0.0662
17,ATCTGTAA,inactive: 0.15
18,GCCCCGCA,inactive: -0.239
19,CGGCTTTA,inactive: -0.0682
20,ACAGCACA,≥ 0.115
21,AGTCGACC,inactive: -0.155
22,GCATCCGA,inactive: -0.0881
